Measurements reported in PubChem BioAssay AID624417 (National Center for Advancing Translational Sciences (NCATS), 2012).
Out of some 410,000 compounds screened, about 6,400 (1.6%) were called active. The shares of active, inactive and inconclusive entries below differ from those in the screen. The call rests on the fitted dose curve; in most records, active means well fitted inhibition curve with a large enough effect; inconclusive means small, poorly fitted or top-dose-only effect; inactive means no such curve, though single readings can be large or run the other way. Potencies beside an inconclusive call are fits to weak or partial responses and may not hold up.

Molecular target: Glucagon-like peptide 1 receptor (Homo sapiens) (UniProt P43220)
Sequence of UniProt P43220 (P43220 whole entry, looked up): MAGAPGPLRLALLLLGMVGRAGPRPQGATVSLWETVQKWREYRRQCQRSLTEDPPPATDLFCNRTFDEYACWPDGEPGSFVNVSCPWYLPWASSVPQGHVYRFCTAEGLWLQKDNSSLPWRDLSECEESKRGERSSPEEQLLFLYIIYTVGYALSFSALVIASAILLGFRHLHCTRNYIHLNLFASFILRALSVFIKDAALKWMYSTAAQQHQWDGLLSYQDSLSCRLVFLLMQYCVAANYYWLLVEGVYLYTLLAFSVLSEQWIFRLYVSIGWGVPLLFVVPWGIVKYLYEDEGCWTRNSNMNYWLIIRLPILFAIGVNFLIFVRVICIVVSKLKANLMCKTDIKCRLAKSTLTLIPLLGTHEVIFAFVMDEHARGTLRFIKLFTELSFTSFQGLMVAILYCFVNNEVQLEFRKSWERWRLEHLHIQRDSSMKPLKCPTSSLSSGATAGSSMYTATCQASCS
Assay: qHTS of GLP-1 Receptor Inverse Agonists (Inhibition Mode); further: nearly all actives have a fitted effect of over 55% in size
Details: HEK293 GLP-1R CRE-luciferase, luminescence, 24 h, GLP-1R form is constitutively active; activity change, negative = inhibition: at 38.3 µM (top of the series) unless noted
In short: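 Stable HEK293 clone (constitutively active GLP-1R + cAMP-response luciferase); 200 cells/uL plated, 12 h pre-culture, compound 24 hr, 37 deg C/5% CO2; detection reagent 12 min RT; luminescence.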
On the % scale 0 is the no-effect control and ±100 the full control effect; potency means the concentration at half of the fitted maximal effect; tags describe the fitted curve by direction and shape.

Activity change, negative = inhibition, inactive:
CCOC(=O)c1c(C)nn(-c2ccc(NC(=O)c3c(C)noc3C)cc2)c1C 17.8%, N#Cc1nc(-c2ccco2)oc1NCc1cccnc1 53.4%, Cc1ccc(-n2ncc3c(N4CCC(C)CC4)ncnc32)cc1C -28.9%, CCOc1ccccc1N(CC(=O)NCCSc1ccccn1)S(=O)(=O)c1ccc(C)cc1 -15.2%, CCN1CCN(C(=O)c2ccccc2N(Cc2ccccc2)S(=O)(=O)c2ccc(C)cc2)CC1 -16.7%

Potency, active:
Cn1c(=O)n(Cc2ccccc2)c(=O)c2c1nc(NCC1CCCO1)n2Cc1ccccc1 (centres undefined) 3.98 µM, CC1CCCCN1C(=O)CSc1nc2ccccc2nc1Cc1ccc(Cl)cc1 (centres undefined) 5.01 µM

Potency, inconclusive:
NC(=O)COc1ccc(C(=O)/C=C2/C(=O)Nc3ccccc32)cc1 10 µM [inhibitor, partial curve, poor fit], COC(=O)c1c(NC(=O)CN2CCCC(C)C2)c2c(C)cccc2n1C (centres undefined) 10 µM [inhibitor, partial curve, poor fit], O=C(c1cccc(Cl)c1)N1CCC2CC1c1cc(-c3ccc(F)cc3)ccc12 (centres undefined) 11.2 µM [inhibitor, partial curve, poor fit], CCc1ccc(OCCOC(=O)Nc2ccccc2)cc1 28.2 µM [inhibitor, single point], CCN(CC)c1ccc(S(=O)(=O)N2CCOCC2)cc1NC(=O)COC(=O)/C=C/c1ccc(C)o1 12.6 µM [inhibitor, partial curve, poor fit], COc1ccc(NCc2nc3ccccc3n2CCOc2ccc(C)cc2)cc1 28.2 µM [inhibitor, single point], COc1ccc(C(=O)/C=C/C(=O)N(Cc2ccc3c(c2)OCO3)C(C(=O)NC2CCCCC2)c2ccncc2)c(O)c1 (centres undefined) 12.6 µM [inhibitor, single point], COc1ccc(C2=Nc3ccccc3N(C(=O)Cc3cc(OC)cc(OC)c3)C2C(=O)NC(C)(C)C)cc1 (centres undefined) 10 µM [inhibitor, partial curve, poor fit], CN1CCN(C(=O)c2ccc3c(c2)N(Cc2ccccc2)CCS3)CC1 3.55 µM [inhibitor, single point], O=c1cc(N2CCCCC2)c(-c2ccccc2)nn1Cc1ccc(Cl)cc1Cl 5.01 µM [inhibitor, full curve, poor fit], Cc1cccc(-c2noc(CNC(=O)c3ccc(C)cc3C)n2)c1 10 µM [inhibitor, single point], Cc1ccc(Cl)cc1N1CCN(C(=S)NCCc2ccccc2)CC1 8.91 µM [inhibitor, partial curve, poor fit], O=C(Nc1cccc(-c2cccc(F)c2)c1)C1CCN(Cc2ccco2)CC1 10 µM [inhibitor, partial curve, poor fit], Cc1ccc(CCNS(=O)(=O)c2cc3c(cc2Cl)NC(=O)CO3)cc1 31.6 µM [inhibitor, single point], COc1ccc(-c2sc(Nc3ccccc3)n[n+]2-c2ccc(F)cc2)c(C)c1C 10 µM [inhibitor, single point], Cc1ccc(C)c(S(=O)(=O)N2CCN(C(=O)Cc3c(F)cccc3Cl)CC2)c1 10 µM [inhibitor, partial curve, poor fit], Cc1ccc(-c2cnc(NCc3ccc(C(C)C)cc3)n2C)cc1 11.2 µM [inhibitor, single point], CN1CCN(c2ccc(NC(=O)c3ccc4c(c3)OCCO4)cc2Cl)CC1 12.6 µM [inhibitor, single point], Cc1noc(C)c1C(=O)Nc1ccccc1C(=O)NCCc1ccccc1 28.2 µM [inhibitor, single point], CCCCn1nc(C(=O)N2CCc3ccccc32)c2ccccc2c1=O 28.2 µM [inhibitor, single point], O=C(OCCC12CC3CC(CC(C3)C1)C2)c1ccc(NCc2cc(O)ccc2O)cc1 7.94 µM [inhibitor, partial curve, poor fit], CCC(C)(C)C1CCC2(CC1)NC(=O)N(CC(=O)NCCc1ccc(OC)c(OC)c1)C2=O (centres undefined) 28.2 µM [inhibitor, single point], Cc1ccccc1C1CC(c2ccc(Br)cc2)Nc2nc(N)nn21 (centres undefined) 25.1 µM [inhibitor, single point], Nc1c(C(=O)Nc2ccccc2Cl)nnn1Cc1cccc(Cl)c1 7.08 µM [inhibitor, partial curve], COc1ccc(C2=NN(C(=S)Nc3ccccc3)C(c3ccccc3)C2)cc1 (centres undefined) 11.2 µM [inhibitor, single point], Cc1ccc(NCc2nc3ccccc3n2CCOc2ccccc2C)cc1 28.2 µM [inhibitor, single point], COCC1CCN(C(=O)C2CCN(c3nc(-c4ccccc4)nc4c3CCC4)CC2)C1 (centres undefined) 11.2 µM [inhibitor, partial curve, poor fit], CCc1ccccc1NC(=O)C(=O)c1cc(C)n(-c2ccccc2F)c1C 28.2 µM [inhibitor, single point], CN(C)CCCn1c2c(c(SCC(=O)Nc3ccc4c(c3)OCO4)nc1=O)CCCC2 8.91 µM [inhibitor, partial curve], CCN(CC)S(=O)(=O)c1ccc(NCC2COc3ccccc3O2)c([N+](=O)[O-])c1 (centres undefined) 28.2 µM [inhibitor, single point], COc1ccc(S(=O)(=O)N2CCN=C2SCc2cccc(C)c2)cc1 28.2 µM [inhibitor, single point], O=C(CN1C(=O)NC2(CCCCCC2)C1=O)Nc1ccc2c(c1)CCC2 2.24 µM [inhibitor, partial curve, poor fit]
